Source: PubChem BioAssay AID1346428 (National Center for Advancing Translational Sciences (NCATS), 2018)
Among all 48,000 compounds or so, about 1,200 (2.5%) were called active. About 2% were inconclusive and are not listed.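 The calls were made as follows: active = activation of at least 60% and not above a set upper limit (about 1 call in 100 departs from these limits); inconclusive = activation of 40% to 60%, or above that upper limit; inactive = activation under 40%.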 Some of the results follow.

Target: Probable G-protein coupled receptor 32 (Homo sapiens) (UniProt O75388)
Sequence of UniProt O75388 (O75388 whole entry, looked up): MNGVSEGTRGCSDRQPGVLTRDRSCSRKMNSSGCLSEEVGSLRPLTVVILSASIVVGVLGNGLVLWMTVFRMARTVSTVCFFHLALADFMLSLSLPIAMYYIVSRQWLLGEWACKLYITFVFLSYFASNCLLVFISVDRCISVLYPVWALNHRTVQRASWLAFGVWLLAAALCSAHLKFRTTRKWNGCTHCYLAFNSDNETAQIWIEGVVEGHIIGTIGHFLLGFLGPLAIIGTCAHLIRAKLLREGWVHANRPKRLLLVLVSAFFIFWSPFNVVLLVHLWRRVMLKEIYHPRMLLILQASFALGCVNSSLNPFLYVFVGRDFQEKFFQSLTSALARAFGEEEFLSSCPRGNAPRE
Experiment: qHTS for Agonists of Human Resolvin D1 Receptor DRV1; also: 0% is about no effect
Conditions: CHO-K1 GPR32 beta-arrestin PathHunter luminescence, 90 min; at 76.9 µM; active compounds read high; zero percent set by DMSO-only wells
Outline: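 CHO-K1 cells stably expressing ProLink-tagged GPR32 and Enzyme Activator-tagged beta-arrestin were seeded at 2,500 cells/well overnight, exposed to compounds for 90 min at 37 °C, then read by beta-Gal complementation chemiluminescence after 1 h detection reagent.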

activation, inactive:
Cc1ccc2[nH]cc(C(c3ccccc3)c3ccc(C)s3)c2c1 (stereo not drawn) -5.88%
Cc1c(Cl)cccc1NC(=O)CC(c1ccc(F)cc1)N1Cc2ccccc2C1=O (stereo not drawn) -21.7%
CCN(c1ccc(Cl)cc1)S(=O)(=O)c1nnc(NC(=O)c2ccccc2C)s1 -2.28%
O=C(NCCCc1nc2ccccc2n1Cc1ccccc1Cl)c1ccco1 -8.74%
CC(CNC(=O)C1CCN(C(=O)N2CCOc3ccc(Cl)cc32)CC1)c1ccccc1 (stereo not drawn) -3.13%
Cc1nc2n(c(=O)c1CCN1CCC(c3noc4cc(F)ccc34)CC1)CCCC2O (stereo not drawn) -2.91%
O=[N+]([O-])c1cc(-c2nc(-c3ccco3)no2)ccc1NCc1ccccc1 -4.72%
COc1ccc(-n2nc(C(=O)N(C)c3cc(Cl)ccc3OC)c3c4ccccc4n(C)c3c2=O)cc1 -4.92%
CCc1ccc(Sc2cc(C(=O)O)c3ccccc3n2)cc1 -11.7%
CCN(CC)CCNC(=O)COc1ccc(OC)cc1 -3.78%
N#CC1=C2SCN(C3CCCCC3)CN2C(=O)CC1c1c(F)cccc1Cl (stereo not drawn) 9.55%
COc1ccc(S(=O)(=O)c2nnn(-c3ccccc3F)c2C)cc1 12.3%
Cc1nn(CCCC(=O)NCc2ccc(OC(C)C)cc2)c(=O)c2c1sc1ccccc12 -16.7%
Cc1ccc(Cc2nc3ccccc3nc2SCC(=O)N2CCN(c3ccccc3)CC2)cc1 -17.2%
CCOc1ccccc1NC(=O)C1=C(C)Nc2ncnn2C1c1ccc(NC(C)=O)cc1 (stereo not drawn) 5.4%
Cc1ccc(NC(=O)CC2Nc3cc(C)c(C)cc3NC2=O)c(C)c1 (stereo not drawn) -17.6%
Cc1cccc(N2CCN(c3ccc(C(=O)O)cc3NC(=O)c3cccc(Cl)c3)CC2C)c1 (stereo not drawn) 5.49%
Cc1cccc(C)c1NC(=O)Cn1c(=O)n(CCCS(=O)(=O)C2CCCCC2)c(=O)c2ccccc21 -20.6%
CCc1ccc(-c2nc(SCC(=O)NCC3CCCO3)c(-c3ccc(C)cc3)[nH]2)cc1 (stereo not drawn) -17.2%
CCCN(C(=O)Cn1ncc2c1-c1ccccc1OC2)c1cccc(C)c1 7.16%
CCOCCc1nn2c(=O)cc(COC(=O)Cc3ccccc3)nc2s1 -8.04%
COc1ccc(CCNC(=O)c2nc(SCc3ccccc3F)ncc2Cl)cc1OC -32.2%
CCOC(=O)C1CCN(c2c(C(=O)c3ccc(OC)cc3)cnc3ccccc23)CC1 7.23%
O=C(CSc1nccn1C1CCCC1)Nc1cccc(F)c1 -5.37%
CSCC[C@@H](C(=O)Nc1cccc(F)c1)N1Cc2ccccc2C1=O -24%
CN(c1ccccc1)S(=O)(=O)c1nnc(NC(=O)COc2ccccc2)s1 -6.87%
CCOC(=O)c1cc2c(=O)n3ccccc3nc2n(Cc2ccco2)c1=NC(=O)c1ccc(C)c(C)c1 -20.3%
O=C(Nc1cc2c(cc1C(=O)c1cccc(Br)c1)OCCO2)c1ccccc1F 3.42%
CN(C(=O)Cn1cnc2onc(-c3ccc(F)cc3)c2c1=O)c1ccccc1Cl 29.7%
Cc1cc(C)cc(-n2c(C)cc(C(=O)C(=O)Nc3nnc(C)s3)c2C)c1 -0.179%
Cc1ccc(-n2c(=O)c3ccc(C(=O)NCc4ccco4)cc3n(CC(=O)Nc3ccccc3C(F)(F)F)c2=O)cc1 1.7%
CCOc1ccccc1CNC(=O)c1ccc(NC(=O)N2CC(C)Sc3ccccc32)cc1 (stereo not drawn) -19.4%
CCCN(CCC)C(=O)C(CCC(=O)OCCCN1CCN(CCOC(=O)Cc2c(C)n(C(=O)c3ccc(Cl)cc3)c3ccc(OC)cc23)CC1)NC(=O)c1ccccc1 (stereo not drawn) -29.8%
CCCN(CCC)C(=O)Cn1c(SCc2cccc(C(F)(F)F)c2)nc2cccnc21 -24.7%
CCOc1ccc(C(=O)NCc2nc3cccnc3n2Cc2cccc(OC)c2)cc1 -14.2%
O=C(NC1(C(F)(F)F)C(=O)Nc2c1c(=O)[nH]c(=O)n2-c1ccccc1)c1ccccc1 (stereo not drawn) 10.4%
C=CCCCCCCCCC(=O)O 19.5%
N#Cc1ccccc1NC(=O)C(=O)NCCc1csc2nc(-c3cccc(F)c3)nn12 -12.4%
Cc1cccc(NC(=O)N2CCN(C)c3ncccc32)c1C 0.206%
COc1ccc(OC)c(CNC(=O)CN(c2ccc(C)cc2)S(=O)(=O)N(C)C)c1 -20.3%
C=Cc1ccc(Cn2c(=O)cc(C)c3c(C)nn(-c4ccccc4)c32)cc1 -6.23%
COc1cc(OC)cc(-c2cc3nc(C)c(CCC(=O)Nc4ccc(C(C)=O)cc4)c(C)n3n2)c1 -3.23%
O=C(NC1(C(F)(F)F)C(=O)Nc2c1c(=O)[nH]c(=O)n2-c1ccccc1)c1ccccc1Cl (stereo not drawn) -19.4%
COCc1cc(C)nc2sc3c(c12)NC(c1ccc(O)c(OC)c1)N(c1ccccc1)C3=O (stereo not drawn) -21.2%
COc1ccc(OCC(=O)N(Cc2cccs2)c2ccc(OC)cc2)cc1 -15.3%
CSCCC(NS(=O)(=O)c1ccc2c(c1)oc(=O)n2C)C(=O)Nc1ccc(Cl)cc1 (stereo not drawn) 11.8%
CC(C)c1ccc(CNc2nc(-c3ccco3)nn2C(=O)c2ccc([N+](=O)[O-])cc2)cc1 -3.84%
COc1ccc(NC(=O)Cn2c(=O)n(Cc3ccc4c(c3)OCO4)c(=O)c3ccc(C(=O)NC4CCCCC4)cc32)cc1 -1.71%
COc1cc2c(C(=O)N3CCN(c4cccc(C(F)(F)F)c4)CC3)cn(CC(C)C)c(=O)c2cc1OC -29.5%
COc1ccc2c(c1)cc1c(=O)n(CC(=O)NCCCOC(C)C)nc(C)n12 -4.17%
CCn1c(C)c(C)c2cc(C(=O)NCc3ccc(OC(C)C)cc3)ccc21 -15.3%
CCOCCCNc1nc2ccccc2n2c(CC)nnc12 -3.58%
COc1ccc(-c2noc(N3CCC(C(=O)N4CCN(c5ccccc5F)CC4)CC3)n2)cc1 -23.6%
